From PubChem BioAssay AID2147 (National Center for Advancing Translational Sciences (NCATS), 2009)
The whole screen tested about 230,000 compounds, of which about 3,600 (1.6%) were called active. This list was built around the results that the source calls inconclusive (neither active nor inactive); the mix of calls is not that of the screen. Calls follow the shape of the dose curve; as a rule, active = well fitted inhibition curve with a large enough effect (not every such curve was filed as active); inconclusive = small, poorly fitted or top-dose-only effect, or another doubt; inactive = no such curve, though single readings can be large or run the other way. Potencies of inconclusive entries are doubtful fits and often do not repeat.
Also: nearly all actives have a fitted effect of over 50% in size.
Potency is read from the fitted curve at half-maximal effect; tags tell the direction and shape of the fitted curve.

The molecules below were run against Lysine-specific demethylase 4E (Homo sapiens) (UniProt B2RXH2) (assay: qHTS Assay for Inhibitors of Human Jumonji Domain Containing 2E (JMJD2E)). Details: JMJD2E catalytic domain, FDH-coupled NADH fluorescence (FDH is formaldehyde dehydrogenase); series mostly up to 57.1 µM.
Sequence of UniProt B2RXH2 (B2RXH2 whole entry, looked up, the tested form may be a part): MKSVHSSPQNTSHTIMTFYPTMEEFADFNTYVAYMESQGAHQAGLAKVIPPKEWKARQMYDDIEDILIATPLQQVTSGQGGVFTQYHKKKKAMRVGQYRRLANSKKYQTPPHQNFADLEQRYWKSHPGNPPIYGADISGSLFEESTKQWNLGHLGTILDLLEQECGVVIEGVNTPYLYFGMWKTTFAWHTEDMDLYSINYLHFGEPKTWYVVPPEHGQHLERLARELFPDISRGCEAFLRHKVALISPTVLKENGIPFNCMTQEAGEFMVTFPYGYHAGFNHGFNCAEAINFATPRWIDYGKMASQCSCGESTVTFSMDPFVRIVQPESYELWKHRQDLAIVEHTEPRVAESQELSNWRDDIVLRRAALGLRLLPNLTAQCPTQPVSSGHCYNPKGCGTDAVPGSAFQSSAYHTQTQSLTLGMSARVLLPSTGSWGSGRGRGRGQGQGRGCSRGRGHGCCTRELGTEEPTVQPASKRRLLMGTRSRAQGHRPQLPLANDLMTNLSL
For `COc1ccc2c(Cl)c(C(=O)N/N=C/c3c(C)[nH]c4ccccc34)sc2c1`, the Potency was inconclusive: 39.8 µM [inhibitor, single point].
With `COc1cccc(C2Nc3ccccc3C(=O)N2O)c1O` (configuration not stated) the Potency was inconclusive: 31.6 µM [inhibitor, single point].
`CN1c2ccsc2/C(=N/Nc2ccccc2)CS1(=O)=O` was tested, and the Potency was inconclusive: 28.2 µM [inhibitor, single point].
With `CCNC(=S)NNC(=O)c1cc(-c2ccccc2C)nc2ccccc12` the Potency was inconclusive: 39.8 µM [inhibitor, single point].
In the case of `Cc1ccc2[nH]c3c(=O)n(N)c(=O)[nH]c3c2c1`, the Potency is reported as inconclusive: 31.6 µM [inhibitor, partial curve].
In the case of `COc1ccc(NS(=O)(=O)c2cccc(C(=O)O)c2)cc1`, the Potency is reported as “inactive”.
In the case of `C=CCOC(=O)C1=C(C)NC(SCC(=O)NC(=O)OCC)=C(C#N)C1c1cccnc1` (configuration not stated), the Potency is reported as inconclusive: 3.16 µM [inhibitor, partial curve].
In the case of `CCN(CC)c1ccc(/C=N/N2CCN(Cc3ccccc3)CC2)cc1`, the Potency is reported as inconclusive: 35.5 µM [inhibitor, single point].
For `CCN(CC)c1ccc(NC(=O)c2ccccc2)cc1S(=O)(=O)Nc1ccccc1OC`, the Potency was “inactive”.
In the case of `Cc1ccc(C)c2[nH]c(=O)c(CCNC(=O)c3ccco3)cc12`, the Potency is reported as inconclusive: 25.1 µM [inhibitor, partial curve].
`O=C(Oc1ccc2c3c(c(=O)oc2c1)CCC3)c1ccccc1[N+](=O)[O-]` was tested, and the Potency was inconclusive: 7.94 µM [inhibitor, partial curve].
With `COc1ccc(C(=O)CC(=O)O)c2c1C=CC(C)(C)O2` the Potency was inconclusive: 25.1 µM [inhibitor, single point].
In the case of `CCOC(=O)CSC1=C(C#N)C(C)C2=C(CCCC2=O)N1` (configuration not stated), the Potency is reported as inconclusive: 25.1 µM [inhibitor, single point].
For `C/C=C(/C)C(=O)OC1c2c(ccc3ccc(=O)oc23)OC(C)(C)C1OC(C)=O` (configuration not stated), the Potency was inconclusive: 3.55 µM [inhibitor, single point].
In the case of `CC(C)N=C1NN=C(c2ccc(Cl)c(Cl)c2)CS1`, the Potency is reported as inconclusive: 31.6 µM [inhibitor, single point].
`Cc1c(/C=N/Nc2ccc(F)cc2)c(O)n(C)c(=O)c1C#N` was tested, and the Potency was inconclusive: 28.2 µM [inhibitor, single point].
`O=C(NNC(=S)NC(=O)c1ccccc1[N+](=O)[O-])c1ccccc1Cl` was tested, and the Potency was inconclusive: 39.8 µM [inhibitor, single point].
`O=C(OCC(=O)N1CCCCC1)c1ccccc1SCC(=O)N1CCCCC1` was tested, and the Potency was “inactive”.
In the case of `Cc1ccc(N/N=C(\Cc2nc3ccccc3[nH]2)c2ccccc2)cc1`, the Potency is reported as inconclusive: 35.5 µM [inhibitor, partial curve].
In the case of `C(=N\n1cnnc1)/c1cccc(Oc2ccccc2)c1`, the Potency is reported as “inactive”.
`CCOC(=O)c1c(NC(=O)COC(=O)c2ccc(O)cc2)sc(C(=O)N(C)C)c1C` was tested, and the Potency was inconclusive: 35.5 µM [inhibitor, single point].
For `Cc1cccc(-n2cnc3c(sc4nc(N5CCOCC5)c5c(c43)CCCC5)c2=O)c1`, the Potency was inconclusive: 28.2 µM [inhibitor, partial curve].
With `CCN1CC(CN(C)Cc2nc(-c3ccc(C(F)(F)F)cc3)oc2C)CC1=O` (configuration not stated) the Potency was inconclusive: 39.8 µM [inhibitor, single point].
With `CC(C)CC(C)c1cc(N)nc2nc3ccccc3n12` (configuration not stated) the Potency was inconclusive: 28.2 µM [inhibitor, single point].
`CCCC(=O)Nc1ccc2c(c1)nc1n2CCN(C2CCCCC2)C1` was tested, and the Potency was inconclusive: 28.2 µM [inhibitor, partial curve].
`COc1ccc(-n2c(SCC(=O)C(C)(C)C)nc3ccsc3c2=O)cc1` was tested, and the Potency was “inactive”.
With `CCOc1ccc(-c2nc(=S)[nH][nH]2)cc1` the Potency was inconclusive: 25.1 µM [inhibitor, single point].
For `CC[C@H](C)[C@@H](NC(=O)O[C@@H]1C(=O)c2ccc(OC)cc2O[C@H]1c1ccc2c(c1)OCO2)C(=O)OC`, the Potency was “inactive”.
`O=C(O)CSc1c2c(nc3cc(C(=O)N4CCOCC4)ccc13)CCCC2` was tested, and the Potency was inconclusive: 35.5 µM [inhibitor, single point].
`O=c1c2c3c(sc2nc2n1CCCCC2)CCCC3` was tested, and the Potency was “inactive”.
For `O=C(c1cc(-c2cccs2)nc2ccccc12)N1CCN(c2ccccc2)CC1`, the Potency was inconclusive: 28.2 µM [inhibitor, partial curve].
With `CCOC(=O)c1ccc(S(=O)(=O)Nc2nc3cc(S(=O)(=O)NC4=NCCCCC4)ccc3s2)cc1` the Potency was “inactive”.
In the case of `COc1ccc(Cc2nc(-c3ccc(NC(=O)c4cccnc4)cc3)no2)cc1`, the Potency is reported as “inactive”.
With `Cc1ccc2c(c1)C(C)(C)[C@]1(C)NC(=O)CCN21` the Potency was inconclusive: 39.8 µM [inhibitor, single point].
In the case of `O=[N+]([O-])c1cc(-c2ccc(/C=N/c3nc4ccccn4c3-c3ccco3)o2)ccc1Cl`, the Potency is reported as inconclusive: 3.98 µM [inhibitor, full curve].
`CCOC(=O)c1sc(NC(=O)c2ccc(OC(C)=O)cc2)nc1C` was tested, and the Potency was inconclusive: 28.2 µM [inhibitor, partial curve].
For `CC(=O)OC1c2c(ccc3ccc(=O)oc23)OC(C)(C)C1OC(=O)CC(C)C` (configuration not stated), the Potency was inconclusive: 25.1 µM [inhibitor, partial curve].
In the case of `O=C1CCC/C(=N\NC(=O)c2ccc(COc3cccc4cccnc34)cc2)C1`, the Potency is reported as inconclusive: 31.6 µM [inhibitor, single point].
With `COc1ccc(NC(=O)Nc2ccc3c(c2)N(C)C(=O)CS3)cc1OC` the Potency was “inactive”.
For `CCc1ccccc1NC(=O)Cn1c(=O)n(-c2ccc(CC(=O)NCC3CCCO3)cc2)c(=O)c2ccccc21` (configuration not stated), the Potency was inconclusive: 39.8 µM [inhibitor, single point].
For `O=C(COC(=O)c1cc(=O)[nH]c2ccccc12)Nc1nc(-c2ccccc2)cs1`, the Potency was inconclusive: 10 µM [inhibitor, partial curve].
For `CCN1CCN(c2cc(C(C)C)nc3c(-c4ccccc4)c(C)nn23)CC1`, the Potency was inconclusive: 35.5 µM [inhibitor, single point].
With `CN(C)S(=O)(=O)Nc1ccccc1F` the Potency was “inactive”.
For `CCOC(=O)C(c1ccccc1)C(Nc1ccc(F)cc1)c1ccccn1` (configuration not stated), the Potency was “inactive”.
With `CNC(=S)NNC(=O)c1sc(-c2cc(C)on2)nc1C` the Potency was inconclusive: 39.8 µM [inhibitor, single point].
`Cc1ccc(-n2nc(C(=O)NCc3ccco3)c3c4ccccc4n(C)c3c2=O)cc1` was tested, and the Potency was inconclusive: 31.6 µM [inhibitor, single point].
With `CCCn1c(NCc2ccccn2)nc2ccccc21` the Potency was inconclusive: 22.4 µM [inhibitor, single point].
`O=C(N/N=C/c1cc([N+](=O)[O-])ccc1O)C12CC3CC(CC(C3)C1)C2` was tested, and the Potency was inconclusive: 25.1 µM [inhibitor, single point].
`CN1CCCCc2c1nc1ccccc1c2N` (tested in a mixture with another compound) was tested, and the Potency was inconclusive: 39.8 µM [inhibitor, single point].
For `COC(=O)c1scc(C)c1NC(=O)CC1NCCNC1=O` (configuration not stated), the Potency was inconclusive: 28.2 µM [inhibitor, single point].
`CCCC(c1nnnn1CS(=O)(=O)c1ccc(C)cc1)N1CCN(CC)CC1` (configuration not stated) was tested, and the Potency was inconclusive: 39.8 µM [inhibitor, single point].
With `O=C(N/N=C/c1cccnc1)c1ccc(CN2c3cccc4cccc(c34)S2(=O)=O)cc1` the Potency was inconclusive: 28.2 µM [inhibitor, partial curve].
In the case of `CCOC(=O)N1CCN(S(=O)(=O)c2ccc(C(=O)NNc3nc4ccc(Cl)cc4s3)cc2)CC1`, the Potency is reported as inconclusive: 25.1 µM [inhibitor, single point].
In the case of `O=C1NC(=O)/C(=C\c2ccc(O)cc2O)S1`, the Potency is reported as active: 15.8 µM.
With `COCc1cc(C)nc(N/N=C/c2ccc(-c3ccc(C(=O)O)c(Cl)c3)o2)c1C#N` the Potency was inconclusive: 35.5 µM [inhibitor, partial curve].
`Cc1ccc(C2=Nc3ccccc3N=C(C(Cl)Cl)C2)cc1` was tested, and the Potency was inconclusive: 25.1 µM [inhibitor, single point].
`O=c1c(/C=N/OCc2ccc(Cl)cc2Cl)c[nH]n1-c1cccc(Cl)n1` was tested, and the Potency was inconclusive: 25.1 µM [inhibitor, single point].
For `Cc1ccc(-n2ncc3c(=O)n(Cc4ccccn4)cnc32)cc1C`, the Potency was inconclusive: 35.5 µM [inhibitor, single point].
In the case of `CCCOc1ccc(OCCN2CCCC(C)C2)cc1` (configuration not stated), the Potency is reported as inconclusive: 8.91 µM [inhibitor, single point].
In the case of `CC[n+]1c(/C=C2/C=C(C)CC(C)C2)sc2ccccc21` (configuration not stated), the Potency is reported as active: 22.4 µM.
For `CC(C)(C)OCC(O)CN1CCN(C(=O)c2ccccc2)CC1` (configuration not stated), the Potency was inconclusive: 39.8 µM [inhibitor, single point].
In the case of `O=C1c2cccc3cccc(c23)C(=O)N1c1nncs1`, the Potency is reported as inconclusive: 31.6 µM [inhibitor, partial curve].
With `CN1Cc2cccc3c2C(Cc2ccccc2S3)C1` (configuration not stated) the Potency was inconclusive: 11.2 µM [inhibitor, partial curve].
With `Cc1cc(NC(=O)/C=C/c2ccccc2Cl)n(-c2nc3ccccc3[nH]2)n1` the Potency was inconclusive: 39.8 µM [inhibitor, single point].
In the case of `COCCn1c(C23CC4CC(CC(C4)C2)C3)n[nH]c1=S`, the Potency is reported as “inactive”.
`N#C/C(=C(/O)CCl)c1nc2ccccc2[nH]1` was tested, and the Potency was inconclusive: 35.5 µM [inhibitor, single point].
For `CC(=O)Nc1ccc(N2CCCC2)cc1`, the Potency was inconclusive: 39.8 µM [inhibitor, single point].
